# Assay results as given in PubChem BioAssay AID1671193 (National Center for Advancing Translational Sciences (NCATS), 2021).
# The whole screen tested about 150,000 compounds, of which about 180 (0.12%) were called active. The inconclusive results got no clear call from the source; some entries with a clear call stand among them for comparison. Calls come from the whole dose curve; as a rule, active = well fitted cell-killing curve with a large enough effect; inconclusive = small, poorly fitted or top-dose-only effect, or effect the other way; inactive = flat fitted curve, though single readings scatter. Where the call is inconclusive, the potency comes from a doubtful curve fit.
# Assay: GF-AFC viability counterscreen for inhibitors of alpha-synuclein gene (SNCA) expression; note: nearly all actives have a fitted effect of over 30% in size;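 for activity change, negative = cytotoxicity: 0% = DMSO-treated cells and -100% = medium-only wells without cells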
# Settings: HEK-293-SNCA-luc viability, GF-AFC fluorescence, 24 h; activity change, negative = cytotoxicity: at 57.1 µM (top of the series) unless noted
# Method in brief: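 HEK-293-SNCA-luc cells (1500/well) plated 24 h, then exposed 24 h to a dilution series; GF-AFC added 30 min at 37C, fluorescence 405/540 nm; normalised to medium-only and DMSO wells, Hill fit.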
# Potency is the fitted concentration of half-maximal effect; tags give direction and shape of the fitted curve.
SMILES,Potency,"activity change, negative = cytotoxicity"
CNC(=O)c1cccc(-c2cnc3[nH]cc(CC(=O)NCc4cccc(F)c4)c3c2)c1,"inconclusive: 28.2 µM [cytotoxic, partial curve, poor fit]",–
Cc1ccc(C)c(-c2ccc(=O)n(C(C)C(=O)Nc3ccccc3C(F)(F)F)n2)c1 (stereo not drawn),"inconclusive: 12.6 µM [cytotoxic, partial curve, poor fit]",–
O=C(NCc1ccccc1F)C1CN(C2CCCC2)C(=O)N1 (stereo not drawn),–,inactive: -7.56% [at 12.5 µM]
Cc1noc2c(N3CC(O)C3)cc(-c3ccsc3)nc12,–,inactive: 8.8% [at 87.6 µM]
COc1cc(O)ccc1-c1nc2ccc(Br)cn2c1Nc1ccccc1C,active: 14.1 µM,–
COc1ccc(C2Cn3nnc(-c4nc(C(C)(C)C)no4)c3CO2)cc1 (stereo not drawn),–,inactive: 5.26%
O=C(c1nc2cccnc2n(C2CCCC2)c1=O)N1CCOCC1,–,inactive: 8.95%
COC(C)(C)CCn1nc(Nc2c(C)cccc2C)c2cnc(Nc3ccc(OCCN4CCCC4)c(F)c3)nc21,"inconclusive: 11.9 µM [cytotoxic, partial curve]",–
COc1ccc(-c2c(C)c3ccc(O)c(CN4CCCCC4C)c3oc2=O)cc1OC (stereo not drawn),"inconclusive: 22.4 µM [rising, single point]",–
COc1ccc(NC(=O)C2(S(=O)(=O)c3ccc(C)cc3)CC2)c(OC)c1,"inconclusive: 1.26 µM [cytotoxic, full curve]",–
CCN(C(=O)c1c(O)c2c(Cl)cccc2n(C)c1=O)c1ccccc1,"inconclusive: 12.1 µM [cytotoxic, full curve]",–
Cc1ccc(-c2ccc3nnc(CNC(=O)c4cccc5[nH]ccc45)n3n2)cc1C,"inconclusive: 39.8 µM [cytotoxic, single point]",–
COc1cccc(CN2CCCC(C(=O)NCc3ccccc3)CCNC(=O)CC2)c1 (stereo not drawn),"inconclusive: 7.08 µM [cytotoxic, single point]",–
Cc1ccccc1-c1cnc2[nH]cc(CC(=O)NC3CCOCC3)c2c1,–,inactive: -3.89% [at 87.6 µM]
O=C(C1CCCN(c2cnn(Cc3ccccc3)c(=O)c2)C1)N1CCCC1 (stereo not drawn),"inconclusive: 28.2 µM [cytotoxic, single point]",–
Cc1cc(C)cc(NC(=O)c2ccc3c(c2)N(C)C2CCCCCN2C3=O)c1 (stereo not drawn),–,inactive: 4.13% [at 12.5 µM]
Clc1ccc2nc(N3CCC(NC4CCSC4)CC3)sc2c1 (stereo not drawn),–,inactive: 16.1%
CCN(C(=O)CSc1nc(-c2ccccc2)no1)c1cccc(C)c1,"inconclusive: 3.16 µM [cytotoxic, full curve, poor fit]",–
CC(C(=O)N1CCC(c2cc(Cc3ccccc3)[nH]n2)CC1)N1CCCC1=O (stereo not drawn),"inconclusive: 0.891 µM [rising, full curve, poor fit]",–
COCCNc1nc2c(S(=O)(=O)c3ccc(C)cc3)nnn2c2ccccc12,–,inactive: 8.61%
COCC1CN(Cc2cccc(C(F)(F)F)c2)CC12CCNCC2 (stereo not drawn),–,inactive: -18.7%
C=CCN1C[C@@H]2C[C@@H](C(=O)OCC)N(C(=O)c3ccc(C)cc3)c3cccc(c32)C1=O,"inconclusive: 2.82 µM [rising, single point]",–

SMILES,Potency,"activity change, negative = cytotoxicity"
CCN(CC)S(=O)(=O)c1ccc2nc(NC(=O)c3ccccc3OC)sc2c1,–,inactive: 9.8%
CCN(C(=O)CSc1nc2ccccc2nc1Cc1cccc(OC)c1)c1cccc(C)c1,"inconclusive: 5.01 µM [cytotoxic, partial curve, poor fit]",–
CCNc1ncc2nc(-c3ccc(OC)cc3)c(=O)n(Cc3cccs3)c2n1,"inconclusive: 3.98 µM [rising, full curve]",–
COc1ccc(NC(=O)[C@@H]2C[C@H](c3ccc(F)cc3)N(Cc3csc(C)n3)C2)cc1,"inconclusive: 31.6 µM [cytotoxic, partial curve, poor fit]",–
O=C(COc1ccc(Cl)cc1)Nc1ccc(O)c(-c2nc3ccccc3s2)c1,–,inactive: 11.6%
CN(C)c1ccc(CN2CCNc3cc(Nc4ccccc4)ncc3C2)cc1,"inconclusive: 10 µM [cytotoxic, partial curve, poor fit]",–
O=C(NC1CC1)c1ccc2nc(-c3ccncc3)oc2c1,–,inactive: 5.87% [at 87.6 µM]
Cc1cc(-c2cc3c(cn2)CN(Cc2ccc4[nH]ccc4c2)CCN3)ccn1,–,inactive: -19.6% [at 87.6 µM]
COc1cc(-c2cc(C)c3c(OC)ccc(OC)c3n2)cc2c1OCCNC2,–,inactive: 2.58%
COC(=O)[C@@H]1Cc2ncn(Cc3ccc(Cl)cc3)c2CN1Cc1cccc(C#N)c1,"inconclusive: 17.8 µM [cytotoxic, partial curve, poor fit]",–
Cc1noc(C)c1Cc1ccc(C(=O)N2CCC(c3nc(C(=O)N4CCCC4)c(C)o3)CC2)o1,–,inactive: -4.65%
COc1ccc(NC(=O)C2CCN(c3nc(-c4ccc(OC)c(OC)c4)no3)CC2)cc1Cl,–,inactive: 13.4%
CCCn1nc(C)c(-c2cc(C(=O)N3CCCCC3c3noc(COCC4CC4)n3)[nH]n2)c1C (stereo not drawn),"inconclusive: 31.6 µM [cytotoxic, single point]",–
COc1ccc(CCC(=O)NCc2nc3cccnc3n2Cc2ccc(OC)cc2)cc1,"inconclusive: 22.4 µM [cytotoxic, partial curve, poor fit]",–
CCn1c(C(=O)N(C2CC2)C2CC2)cc2c3c(ncn3C)c(Nc3cc(C)n(C)n3)nc21,"inconclusive: 42.9 µM [cytotoxic, single point]",–
Cc1cn2nc(C(=O)Nc3cccc(F)c3C)cc2c(N2CCCC2)n1,"inconclusive: 7.94 µM [rising, single point]",–
Cc1nn(-c2ccc(C(C)(C)C)cc2)c(C)c1[C@@H]1C=C[C@@H](NC(=O)c2cccs2)C1,"inconclusive: 20 µM [cytotoxic, partial curve]",–
COc1cccc(CNC(=O)c2cc(-c3ccsc3)c3nncn3n2)c1,–,inactive: -0.337%
CCN(CC)CCNC(=O)Cn1ncc2c3ccccc3n(Cc3ccccc3C)c2c1=O,"inconclusive: 15.8 µM [cytotoxic, partial curve, poor fit]",–
CCN1CCc2[nH]cnc2C12CCN(C(=O)C1CCc3ccccc3C1)CC2 (stereo not drawn),"inconclusive: 35.5 µM [cytotoxic, partial curve, poor fit]",–
COc1ccc(C(=O)c2cn(Cc3cccc(C)c3)c3cc4c(cc3c2=O)OCCO4)cc1OC,"inconclusive: 25.1 µM [cytotoxic, partial curve, poor fit]",–
